{"source": "a collection of fitness landscapes (doi:10.1016/j.celrep.2020.107928)", "parents": {"B1": {"name": "Caulobacter ParB omega fusion; a variant is named by its letters at X, in order, B8GW30 (parent)", "chain": "MESVVVGEPGMSEGRRGLGRGLSALLGEVDAAPAQAPGEQLGGSREAPIEILQRNPDQPRRTFREEDLEDLSNSIREKGVLQPILVRPSPDTAGEYQIVAGERAWRAAQRAGLKTVPIMVRELDDLAVLEIGIIENVQRADLNVLEEALSYKVLMEKFERTQENIAQTIGKSXSHVANXMRLLXLPDEVQSYLVSGELTAXHARAIAAAADPVALAKQIIEGGLSVRETEALARKAPNLSAGKSKGGRPPRVKDTDTQALESDLSSVLGLDVSIDHRGSTGTLTITYATLEQLDDLCNRLTRGI"}}, "note": "In all, about 81,000 sequences were measured (“one-hybrid fitness for binding parS DNA”: median about -0.17, highest 2% from about 0.51 on). This is one part of the list."}
{"variants_of": "B1", "test": "one-hybrid fitness for binding parS DNA (scaled: cognate 1, non-cognate 0); higher = stronger binding", "conditions": "with parS DNA site", "summary_of_the_method": "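Values were rescaled so that cognate is 1 and non-cognate is 0. Each is a fitness, the log change in a variant's read ratio to wild type from Illumina reads of plasmids before and after selection, with three replicate libraries pooled and variants under 10 reads dropped. Selection of the Caulobacter ParB libraries, four specificity codons randomised, used E. coli USO with a HIS3 reporter, site 19 bp from the promoter, on M9-minus-histidine with 0.1 mM IPTG and 5 mM 3-AT for 48 hours at 37°C.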"}
{"variant": "PWPG", "one-hybrid fitness for binding parS DNA": "≤ 0.2"}
{"variant": "VSFG", "one-hybrid fitness for binding parS DNA": "≤ 0.2"}
{"variant": "TAAA", "one-hybrid fitness for binding parS DNA": "≤ 0.2"}
{"variant": "RNNM", "one-hybrid fitness for binding parS DNA": 0.28}
{"variant": "VAAQ", "one-hybrid fitness for binding parS DNA": "≤ 0.2"}
{"variant": "QPPR", "one-hybrid fitness for binding parS DNA": "≤ 0.2"}
{"variant": "WFTL", "one-hybrid fitness for binding parS DNA": "≤ 0.2"}
{"variant": "NHVD", "one-hybrid fitness for binding parS DNA": "≤ 0.2"}
{"variant": "FNKG", "one-hybrid fitness for binding parS DNA": "≤ 0.2"}
{"variant": "YARY", "one-hybrid fitness for binding parS DNA": "≤ 0.2"}
{"variant": "TEKM", "one-hybrid fitness for binding parS DNA": "≤ 0.2"}
{"variant": "VELF", "one-hybrid fitness for binding parS DNA": "≤ 0.2"}
{"variant": "VKMG", "one-hybrid fitness for binding parS DNA": "≤ 0.2"}
{"variant": "QFES", "one-hybrid fitness for binding parS DNA": "≤ 0.2"}
{"variant": "NMYC", "one-hybrid fitness for binding parS DNA": "≤ 0.2"}
{"variant": "GINW", "one-hybrid fitness for binding parS DNA": "≤ 0.2"}
{"variant": "DYTF", "one-hybrid fitness for binding parS DNA": "≤ 0.2"}
{"variant": "DYQG", "one-hybrid fitness for binding parS DNA": "≤ 0.2"}
{"variant": "DLLR", "one-hybrid fitness for binding parS DNA": "≤ 0.2"}
{"variant": "KWDD", "one-hybrid fitness for binding parS DNA": "≤ 0.2"}
{"variant": "VGGS", "one-hybrid fitness for binding parS DNA": "≤ 0.2"}
{"variant": "MQKG", "one-hybrid fitness for binding parS DNA": "≤ 0.2"}
{"variant": "LLLC", "one-hybrid fitness for binding parS DNA": "≤ 0.2"}
{"variant": "LKKG", "one-hybrid fitness for binding parS DNA": "≤ 0.2"}
{"variant": "YLGM", "one-hybrid fitness for binding parS DNA": "≤ 0.2"}
{"variant": "AIEY", "one-hybrid fitness for binding parS DNA": 0.322}
{"variant": "AAFE", "one-hybrid fitness for binding parS DNA": "≤ 0.2"}
{"variant": "PKRC", "one-hybrid fitness for binding parS DNA": "≤ 0.2"}
{"variant": "HTLN", "one-hybrid fitness for binding parS DNA": "≤ 0.2"}
{"variant": "KYRY", "one-hybrid fitness for binding parS DNA": "≤ 0.2"}
{"variant": "REHS", "one-hybrid fitness for binding parS DNA": "≤ 0.2"}
{"variant": "WTYW", "one-hybrid fitness for binding parS DNA": "≤ 0.2"}
{"variant": "MMGG", "one-hybrid fitness for binding parS DNA": "≤ 0.2"}
{"variant": "TLIA", "one-hybrid fitness for binding parS DNA": "≤ 0.2"}
{"variant": "RYTQ", "one-hybrid fitness for binding parS DNA": "≤ 0.2"}
{"variant": "ERAL", "one-hybrid fitness for binding parS DNA": "≤ 0.2"}
{"variant": "AIKG", "one-hybrid fitness for binding parS DNA": "≤ 0.2"}
{"variant": "TKKN", "one-hybrid fitness for binding parS DNA": "≤ 0.2"}
{"variant": "NHRS", "one-hybrid fitness for binding parS DNA": "≤ 0.2"}
{"variant": "TDVS", "one-hybrid fitness for binding parS DNA": "≤ 0.2"}
{"variant": "PTAR", "one-hybrid fitness for binding parS DNA": "≤ 0.2"}
{"variant": "VRLI", "one-hybrid fitness for binding parS DNA": "≤ 0.2"}
{"variant": "VDFR", "one-hybrid fitness for binding parS DNA": "≤ 0.2"}
{"variant": "PATA", "one-hybrid fitness for binding parS DNA": "≤ 0.2"}
{"variant": "LTKT", "one-hybrid fitness for binding parS DNA": "≤ 0.2"}
{"variant": "PSPW", "one-hybrid fitness for binding parS DNA": "≤ 0.2"}
{"variant": "GFRV", "one-hybrid fitness for binding parS DNA": "≤ 0.2"}
{"variant": "MARS", "one-hybrid fitness for binding parS DNA": "≤ 0.2"}
{"variant": "QKHR", "one-hybrid fitness for binding parS DNA": "≤ 0.2"}
{"variant": "RSYG", "one-hybrid fitness for binding parS DNA": 0.991}
{"variant": "GTMR", "one-hybrid fitness for binding parS DNA": "≤ 0.2"}
{"variant": "KYVS", "one-hybrid fitness for binding parS DNA": "≤ 0.2"}
{"variant": "PSQG", "one-hybrid fitness for binding parS DNA": "≤ 0.2"}
{"variant": "THRC", "one-hybrid fitness for binding parS DNA": "≤ 0.2"}
{"variant": "INQE", "one-hybrid fitness for binding parS DNA": "≤ 0.2"}
{"variant": "QKEA", "one-hybrid fitness for binding parS DNA": "≤ 0.2"}
{"variant": "SWRC", "one-hybrid fitness for binding parS DNA": "≤ 0.2"}
{"variant": "NTFW", "one-hybrid fitness for binding parS DNA": "≤ 0.2"}
{"variant": "RDPF", "one-hybrid fitness for binding parS DNA": "≤ 0.2"}
{"variant": "EPNK", "one-hybrid fitness for binding parS DNA": "≤ 0.2"}
{"variant": "RGPT", "one-hybrid fitness for binding parS DNA": "≤ 0.2"}
{"variant": "RVPL", "one-hybrid fitness for binding parS DNA": "≤ 0.2"}
{"variant": "LYKV", "one-hybrid fitness for binding parS DNA": "≤ 0.2"}
{"variant": "SPFL", "one-hybrid fitness for binding parS DNA": "≤ 0.2"}
{"variant": "ARAD", "one-hybrid fitness for binding parS DNA": "≤ 0.2"}
{"variant": "DGVD", "one-hybrid fitness for binding parS DNA": "≤ 0.2"}
{"variant": "WFMG", "one-hybrid fitness for binding parS DNA": "≤ 0.2"}
{"variant": "PCAA", "one-hybrid fitness for binding parS DNA": "≤ 0.2"}
{"variant": "NMFC", "one-hybrid fitness for binding parS DNA": "≤ 0.2"}
{"variant": "VCMT", "one-hybrid fitness for binding parS DNA": "≤ 0.2"}
{"variant": "WTAC", "one-hybrid fitness for binding parS DNA": "≤ 0.2"}
{"variant": "WRHG", "one-hybrid fitness for binding parS DNA": "≤ 0.2"}
{"variant": "DVRF", "one-hybrid fitness for binding parS DNA": "≤ 0.2"}
{"variant": "AWFS", "one-hybrid fitness for binding parS DNA": "≤ 0.2"}
{"variant": "QDTS", "one-hybrid fitness for binding parS DNA": "≤ 0.2"}
{"variant": "GSRL", "one-hybrid fitness for binding parS DNA": "≤ 0.2"}
{"variant": "IHTG", "one-hybrid fitness for binding parS DNA": "≤ 0.2"}
{"variant": "DDWR", "one-hybrid fitness for binding parS DNA": "≤ 0.2"}
{"variant": "SAHW", "one-hybrid fitness for binding parS DNA": "≤ 0.2"}
{"variant": "QNKN", "one-hybrid fitness for binding parS DNA": "≤ 0.2"}
{"variant": "INIS", "one-hybrid fitness for binding parS DNA": "≤ 0.2"}
{"variant": "THHL", "one-hybrid fitness for binding parS DNA": "≤ 0.2"}
{"variant": "TQRN", "one-hybrid fitness for binding parS DNA": "≤ 0.2"}
{"variant": "GWQS", "one-hybrid fitness for binding parS DNA": "≤ 0.2"}
{"variant": "SPHK", "one-hybrid fitness for binding parS DNA": "≤ 0.2"}
{"variant": "GNRN", "one-hybrid fitness for binding parS DNA": "≤ 0.2"}
{"variant": "ALCV", "one-hybrid fitness for binding parS DNA": "≤ 0.2"}
{"variant": "MHYR", "one-hybrid fitness for binding parS DNA": "≤ 0.2"}
{"variant": "HCNY", "one-hybrid fitness for binding parS DNA": "≤ 0.2"}
{"variant": "QISV", "one-hybrid fitness for binding parS DNA": "≤ 0.2"}
{"variant": "NRHT", "one-hybrid fitness for binding parS DNA": "≤ 0.2"}
{"variant": "HSML", "one-hybrid fitness for binding parS DNA": "≤ 0.2"}
{"variant": "GTTW", "one-hybrid fitness for binding parS DNA": "≤ 0.2"}
{"variant": "IRSN", "one-hybrid fitness for binding parS DNA": "≤ 0.2"}
{"variant": "IKVW", "one-hybrid fitness for binding parS DNA": "≤ 0.2"}
{"variant": "ARRH", "one-hybrid fitness for binding parS DNA": "≤ 0.2"}
{"variant": "PHSI", "one-hybrid fitness for binding parS DNA": "≤ 0.2"}
